Reference: PubChem BioAssay AID1460 (National Center for Advancing Translational Sciences (NCATS), 2008)
Hit rate of the full screen: of about 270,000 compounds, about 5,800 (2.1%) were called active. Inconclusive means that the source gave no clear call. Such entries were picked first, then a sample of the others. The call rests on the fitted dose curve; in most records, active means well fitted inhibition curve with a large enough effect; inconclusive means small, poorly fitted or top-dose-only effect; inactive means flat fitted curve, though single readings scatter. Potencies of inconclusive entries are doubtful fits and often do not repeat.

The compounds below were run against Microtubule-associated protein tau (Homo sapiens) (UniProt P10636) (assay: qHTS for Inhibitors of Tau Fibril Formation, Thioflavin T Binding). Settings: recombinant tau K18 P301L, heparin-induced fibrillization, ThT fluorescence; series mostly up to 57.4 µM.
Procedure, shortened: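 ThT emission at 510 nm, taken 1 hr after adding 30 uM dye, quantifies aggregates formed when 20 uM heparin acts on human tau K18 P301L for 6 hr at 37 C.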
Further: nearly all actives have a fitted effect of over 55% in size.
On the % scale 0 is the no-effect control and ±100 the full control effect; potency means the concentration at half of the fitted maximal effect; tags describe the fitted curve by direction and shape.

UniProt P10636, sequence (P10636 whole entry, looked up): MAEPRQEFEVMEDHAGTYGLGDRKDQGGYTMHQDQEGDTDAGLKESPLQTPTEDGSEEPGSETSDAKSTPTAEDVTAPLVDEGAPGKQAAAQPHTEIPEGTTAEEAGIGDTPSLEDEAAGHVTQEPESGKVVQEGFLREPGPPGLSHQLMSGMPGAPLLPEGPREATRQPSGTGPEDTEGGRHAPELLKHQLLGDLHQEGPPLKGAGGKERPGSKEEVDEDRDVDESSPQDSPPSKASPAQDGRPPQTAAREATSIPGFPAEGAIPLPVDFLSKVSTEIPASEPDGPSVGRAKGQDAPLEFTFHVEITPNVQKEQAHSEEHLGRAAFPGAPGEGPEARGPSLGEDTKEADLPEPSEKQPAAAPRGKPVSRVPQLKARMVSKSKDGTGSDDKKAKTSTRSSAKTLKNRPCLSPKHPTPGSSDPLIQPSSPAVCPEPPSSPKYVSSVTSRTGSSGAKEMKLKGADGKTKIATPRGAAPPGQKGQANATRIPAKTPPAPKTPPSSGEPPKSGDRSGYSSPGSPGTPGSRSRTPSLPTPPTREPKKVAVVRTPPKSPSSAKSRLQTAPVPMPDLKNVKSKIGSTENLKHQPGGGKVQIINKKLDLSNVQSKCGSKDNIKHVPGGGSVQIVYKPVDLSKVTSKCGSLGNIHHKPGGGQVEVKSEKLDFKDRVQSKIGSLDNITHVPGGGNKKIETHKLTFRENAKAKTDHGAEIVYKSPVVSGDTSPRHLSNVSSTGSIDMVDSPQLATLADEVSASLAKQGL

Structure (SMILES) | Potency | activity, negative = inhibition
Cc1[nH]nc(SCC(=O)N2CCCC2)c1[N+](=O)[O-] | inconclusive: 44.7 µM [inhibitor, single point] | 
O=C(N/N=C/c1ccc(OCc2ccccc2)cc1)c1cc[n+](Cc2ccccc2)cc1 | inconclusive: 15.8 µM [inhibitor, partial curve] | 
O=S(=O)(Nc1cc(Sc2ncn[nH]2)c(O)c2ccccc12)c1ccccc1 | active: 11.2 µM | 
C=CCn1c2[n+](c3ccccc3c1=O)CCCCC2 | inconclusive: 35.5 µM [inhibitor, single point] | 
COC(=O)c1ccc(NC(=O)c2cn(-c3cccc(C)n3)cn2)cc1 | inconclusive: 0.398 µM [inhibitor, full curve] | 
CCOCCCNC(=S)N(Cc1ccccc1)Cc1nc2ccccc2c(=O)[nH]1 | inactive | 
Cc1c(/C=C(\C#N)C(=O)Nc2cccc(Cl)c2)c2ccccc2n1Cc1ccccc1 | inconclusive: 1.41 µM [inhibitor, partial curve] | 
O=C1C2C3C=CC(C3)C2C(=O)N1/N=C/c1cc(Br)cc([N+](=O)[O-])c1O (stereo not drawn) | active: 7.94 µM | 
Cc1cc(Br)ccc1OCCCCNC(C)(C)C | inactive | 
Cc1ccc(C(=O)N/C(=C\c2cn(C)c3ccccc23)C(=O)OCCN(C)C)cc1 | inconclusive: 3.55 µM [inhibitor, partial curve, poor fit] | 
Cn1nnc(NC(=S)NC(=O)Cc2ccccc2)n1 | inactive | 
CO[C@@H]1COC(=O)[C@H](COCc2ccccc2)NC(=O)C/C=C\[C@@H](C)[C@H](OC)COC(=O)[C@H](COCc2ccccc2)NC(=O)C/C=C\[C@H]1C |  | inactive: -5.43% [at 11.5 µM]
N=C1C(c2nc3ccccc3[nH]2)=C(O)CN1NC(=O)COc1cccc(F)c1 | inactive | 
COC(=O)Cc1cc(=O)[nH]c(Nc2nc3ccccc3o2)n1 | inconclusive: 12.6 µM [inhibitor, partial curve, poor fit] | 
O=C(Nc1ccccc1F)c1coc(=O)c(Br)c1 | inconclusive: 25.1 µM [inhibitor, partial curve] | 
Cc1ccc(-c2nc3ncccn3c2NC2CCCC2)o1 | inconclusive: 39.8 µM [inhibitor, partial curve] | 
CCc1ccccc1NC(=O)Cn1c(=O)n(CC(=O)NCCc2ccccc2)c(=O)c2ccccc21 | inactive | 
COc1cc(OC)cc(C(=O)NCCSC2CCCCC2)c1 | inactive | 
COc1cc(Cl)c(C)cc1NC(=O)CSc1cc(-c2ccccc2)nc(C)n1 | inconclusive: 15.8 µM [inhibitor, single point] | 
O=C(NCCOC(=O)c1ccc([N+](=O)[O-])cc1)c1cccnc1 | inconclusive: 0.224 µM [inhibitor, full curve, poor fit] | 
COc1ccc(/C=C(\C#N)C(=O)Nc2ccc3[nH]c(=O)[nH]c3c2)cc1 | inconclusive: 3.98 µM [inhibitor, full curve] | 
CS(=O)(=O)n1nc(-c2ccco2)nc1NCc1ccccc1Cl | inactive | 
O=c1[nH]c(/C(Cl)=C/c2cc(Cl)ccc2O)nc2cc(Cl)ccc12 | inconclusive: 10 µM [inhibitor, partial curve] | 

Structure (SMILES) | Potency | activity, negative = inhibition
CCOc1ccc(NC(=O)c2sc3ccccc3c2Cl)cc1 | inconclusive: 0.562 µM [inhibitor, full curve] | 
O=C(NCc1ccco1)C1CC(c2c(Cl)cccc2Cl)=NO1 (stereo not drawn) | inconclusive: 20 µM [inhibitor, single point] | 
COc1ccc(-c2noc(-c3ccc(C)cc3Cl)n2)cc1OC | inactive | 
CN(C)CCc1cc2c(c3c1ccc1ccccc13)OCO2 | inconclusive: 17.8 µM [inhibitor, partial curve] | 
Cc1cccc(OCCCC(=O)Nc2ccc(N3CCCCC3)cc2)c1 | inconclusive: 0.501 µM [inhibitor, full curve] | 
Oc1ccc(Cl)cc1C(C#Cc1ccccc1)N1CCOCC1 (stereo not drawn) | inconclusive: 20 µM [inhibitor, single point] | 
Cc1ccc(C)c(N2CCN(C(=O)c3ccc4nc(-c5ccco5)c(-c5ccco5)nc4c3)CC2)c1 | inconclusive: 25.1 µM [inhibitor, single point] | 
COC(=O)NC(c1ccccc1)c1c[nH]c2ccccc12 (stereo not drawn) | inactive | 
CC(C)(C)c1nnc2sc(SCC(=O)c3ccc(Cl)cc3)nn2c1=O | inconclusive: 17.8 µM [inhibitor, single point] | 
C(=N\Nc1ncnc2sc3c(c12)CCC3)/c1ccncc1 | inconclusive: 12.6 µM [inhibitor, partial curve] | 
CCOc1ccc(N2C(=O)CC(Sc3nc(-c4cccs4)cc(C(F)(F)F)c3C#N)C2=O)cc1 (stereo not drawn) | inconclusive: 15.8 µM [inhibitor, partial curve] | 
Cc1nc2c(-c3ccccc3)c(C)nn2c(C)c1CCC(=O)Nc1ccccc1F | inconclusive: 35.5 µM [inhibitor, partial curve] | 
O=C(N/N=C/c1ccc(-c2cccc([N+](=O)[O-])c2)o1)c1cccs1 | inconclusive: 2.82 µM [inhibitor, full curve] | 
COc1ccc(Nc2ccc(C(=O)O)cc2[N+](=O)[O-])cc1 | inconclusive: 14.1 µM [inhibitor, partial curve] | 
Cc1ccccc1C1=CCN(c2ncc(NC(=O)c3ccc(Cl)cc3)cc2C(=O)O)CC1 | active: 14.1 µM | 
COc1ccccc1NS(=O)(=O)c1cccc(NC(=O)C2CC(=O)N(Cc3ccccc3)C2)c1 (stereo not drawn) | inactive | 
O=S(=O)(c1ccc(NC(=S)N/N=C/c2ccc(O)c(O)c2)cc1)N1CCOCC1 | inconclusive: 11.2 µM [inhibitor, partial curve] | 
Cc1cc(C)n(C(=O)CNC(=O)CCc2ccccc2)n1 | inactive | 
Cc1ccc(-c2nn(CCC(=O)O)cc2/C=C\C(=O)c2ccc(Br)cc2)cc1 | inconclusive: 12.6 µM [inhibitor, single point] | 
CCC(=O)N(CCC(c1ccco1)c1ccccc1OC)Cc1cccs1 (stereo not drawn) | inconclusive: 35.5 µM [inhibitor, partial curve, poor fit] | 
O=C(/C(N=Nc1cccc(C(F)(F)F)c1)=C(/O)c1cccs1)C(F)(F)F | inconclusive: 31.6 µM [inhibitor, partial curve] | 
Cc1ccc(SCc2nc(-c3ccc(C(=O)Nc4cc(C)ccc4C)cc3)oc2C)cc1 | inactive | 
O=C(Nc1nnc(C2CC(=O)N(c3ccc(Cl)cc3)C2)s1)c1ccco1 (stereo not drawn) | inactive | 

Structure (SMILES) | Potency | activity, negative = inhibition
O=C(COc1ccc2oc(-c3ccco3)cc(=O)c2c1)N1CCCCC1 | inconclusive: 7.08 µM [inhibitor, partial curve] | 
Cc1cc(C)n2c(Nc3ccc4c(c3)OCCO4)c(-c3ccc(C)o3)nc2n1 | inconclusive: 31.6 µM [inhibitor, single point] | 
COc1ccccc1N1CCN(CCCC(=O)c2ccc(F)cc2)CC1 | inactive | 
Cc1ccc(NC(=O)c2c(O)c3ccccc3n(C)c2=O)nc1 | inconclusive: 1.12 µM [inhibitor, full curve, poor fit] | 
O=C(Cn1nc(CNc2ccc(Cl)cc2)[n+]2c1CCCCC2)c1ccc(Br)cc1 | inconclusive: 8.91 µM [inhibitor, partial curve] | 
COC(=O)/C=C/c1ccc(-n2cncn2)cc1 | inactive | 
Nc1nc(N)c(N=Nc2ccc(Cl)cc2)c(=O)[nH]1 | inconclusive: 17.8 µM [inhibitor, partial curve] | 
O=C(Cc1c[nH]c2ccccc12)OCC(=O)c1ccccc1 | inconclusive: 2.24 µM [inhibitor, partial curve] | 
O=C(COC(=O)[C@@H]1CC(O)CN1S(=O)(=O)c1ccc2c(c1)OCCO2)NCc1ccc(F)cc1 (stereo partly drawn) | inactive | 
O=C(OCC(=O)c1cccs1)c1ccccc1 | inactive | 
Cc1ccc(-c2nc3n(n2)Cc2ccccc2-3)cc1 | inconclusive: 0.794 µM [inhibitor, full curve, poor fit] | 
COc1ccc(N2C(=O)/C(=C\c3ccco3)N=C2SCC(=O)NC(C)(C)C)cc1Cl | inconclusive: 22.4 µM [inhibitor, single point] | 
COc1cccc(-c2csc(N3CCN(C(=O)Nc4ccc(Cl)cc4)CC3)n2)c1 | inconclusive: 3.16 µM [inhibitor, full curve] | 
COC(=O)c1c(N)sc(Cc2ccccc2)c1C | inconclusive: 22.4 µM [inhibitor, partial curve] | 
CC1=C(C(=O)N(C)C)C(c2ccc(N3CCOCC3)cc2)NC(=O)N1 (stereo not drawn) | inconclusive: 31.6 µM [inhibitor, partial curve] | 
Cc1cc(N2CCOCC2)nc2ccc(NC(=S)N3CCN(c4ccccc4)CC3)cc12 | inconclusive: 2.51 µM [inhibitor, full curve] | 
O=C(COC(=O)COc1ccccc1)NC1CCCc2ccccc21 (stereo not drawn) | inactive | 
Cc1csc(NC(=O)CSc2nncc(=O)n2N)n1 | inconclusive: 11.2 µM [inhibitor, partial curve] | 
Cc1cc(C)c(C)c(S(=O)(=O)ON2C(=O)c3ccccc3C2=O)c1C | inconclusive: 15.8 µM [inhibitor, partial curve] | 
CC1=NNC(=O)C1CCC(=O)N/N=C(/C)c1ccc([N+](=O)[O-])cc1 (stereo not drawn) | inconclusive: 11.2 µM [inhibitor, partial curve] | 
CCOc1ccccc1NC(=O)Nc1cc2c(cc1N1CCCCC1)n(CC)c(=O)n2CC | inconclusive: 17.8 µM [inhibitor, single point] | 
CC(C)O/N=C1\C(=O)N(c2ccccc2)c2ccccc21 | inconclusive: 35.5 µM [inhibitor, single point] | 
